# Laboratory results taken from the supplement of paper PMC4166925.
# ± gives the standard deviation of the averaged measurements. In all, about 33,000 sequences were measured (“E-score (dimensionless, -0.5 to 0.5)”: median about -0.049, highest 2% from about 0.37 on). This is one part of the list.
# Tested on: T1, PmTbr T-box DNA-binding domain (GST fusion)
# T1 sequence: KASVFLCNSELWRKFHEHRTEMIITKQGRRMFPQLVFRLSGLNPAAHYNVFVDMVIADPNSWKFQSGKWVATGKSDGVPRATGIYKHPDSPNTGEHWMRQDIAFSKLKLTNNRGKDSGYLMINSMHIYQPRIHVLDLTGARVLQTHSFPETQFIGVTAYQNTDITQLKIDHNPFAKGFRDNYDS
# Assay: PBM E-score of 8-mer (E-score (dimensionless, -0.5 to 0.5)); Tbr is Tbrain of the sea star Patiria miniata (Pm) or the sea urchin Strongylocentrotus purpuratus (Sp); higher = stronger binding preference; most listed sequences are background and not binding sites
# Details: the construct has about 5 more residues each side
# Summary of the method: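 Each ungapped 8-mer received an enrichment E-score from the Universal PBM Analysis Suite, averaged over duplicate arrays. The proteins were Tbr T-box DNA-binding domains, covering the whole T-box plus about five flanking residues, fused to GST and expressed in BL21 E. coli at 20 °C before glutathione affinity purification. Universal Agilent oligonucleotide arrays were made double-stranded by primer extension and incubated with 200 nM protein in PBS (pH 7.5). The arrays were then scanned and quantified, and every 8-mer was scored from probe intensities.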
row,Sequence,PBM E-score of 8-mer
1,AGTGACCA,0.0489 ± 0.11
2,TCTTAGCA,0.2 ± 0.017
3,AGTAAGTG,0.239 ± 0.0039
4,TCCGAACA,0.0231 ± 0.017
5,AAAGGGGA,-0.0566 ± 0.097
6,ACACTGTG,0.227 ± 0.0059
7,ACACGCAC,0.147 ± 0.046
8,CGCGCGAC,0.291 ± 0.025
9,CAGAAGGG,0.0138 ± 0.051
10,GACACACA,0.257 ± 0.02
11,ATCCGCCC,-0.284 ± 0.025
12,ACGCCACG,-0.0313 ± 0.0036
13,CCGCCAGA,-0.0349 ± 0.073
14,CAGCAGCC,-0.138 ± 0.057
15,CACGCAAC,0.024 ± 0.02
16,AACACCTA,0.4803 ± 0.0034
17,ACGGTCAC,0.0787 ± 0.063
18,CCCATGCC,-0.163 ± 0.034
19,GCTACCCC,-0.124 ± 0.043
20,CGTACCAC,-0.117 ± 0.024
21,GATAAGCC,0.022 ± 0.096
22,CCGCTCCA,-0.0572 ± 0.052
23,ACCCACCG,-0.118 ± 0.046
24,GTAATCAC,0.201 ± 0.035
25,AGCGCACA,0.0274 ± 0.021

row,Sequence,PBM E-score of 8-mer
1,CGTAGTTA,-0.189 ± 0.055
2,ATCGGGAA,-0.272 ± 0.011
3,CACGCGTG,0.226 ± 0.027
4,CCGATCAG,0.022 ± 0.046
5,TACCCAGA,-0.174 ± 0.05
6,ACGTTAAT,0.0757 ± 0.015
7,CACCGAAC,0.0973 ± 0.03
8,CCCCGTTC,-0.0578 ± 0.03
9,AACCGTAC,-0.1762 ± 0.00077
10,GCGGCCAA,0.0231 ± 0.017
11,ATTCCTGG,-0.248 ± 0.0029
12,GAAGGGGA,-0.169 ± 0.064
13,ATTACTAG,-0.14 ± 0.0034
14,ACATGGGA,0.0421 ± 0.044
15,GGCTTGTA,-0.143 ± 0.026
16,CCCGTAAA,-0.107 ± 0.022
17,AGGCTCCA,-0.174 ± 0.039
18,CATATTAG,-0.0525 ± 0.069
19,GACCTTCC,0.0338 ± 0.01
20,GACCGGTC,-0.0385 ± 0.087
21,GTATGTAA,-0.201 ± 0.1
22,CACAATTA,0.213 ± 0.0069
23,ACACGGAC,0.0644 ± 0.0049
24,CATCTCAC,0.3254 ± 0.00092
25,CTCTCTCA,0.122 ± 0.069

row,Sequence,PBM E-score of 8-mer
1,CTCCGGCC,-0.25 ± 0.061
2,CACACACC,0.428 ± 0.021
3,AACCGATC,0.0807 ± 0.014
4,GTCACATA,0.263 ± 0.0064
5,AGCACCAA,0.229 ± 0.028
6,AAGGATTG,-0.11 ± 0.039
7,ACATCGTG,-0.0121 ± 0.082
8,CCATCCGC,-0.0729 ± 0.035
9,AAGTTTGT,-0.0655 ± 0.12
10,CGGATCAC,0.0737 ± 0.044
11,GCCTTACA,0.00945 ± 0.0023
12,AAGTTCTC,-0.047 ± 0.013
13,AGTAAGCG,0.0307 ± 0.0011
14,CCACCGTC,-0.172 ± 0.078
15,TATGCTAA,0.00432 ± 0.0064
16,AGACAGCC,-0.106 ± 0.092
17,TATACGGA,-0.00401 ± 0.018
18,CCCTTTAA,-0.198 ± 0.09
19,CTGAACGA,-0.256 ± 0.038
20,AAGTACCG,-0.255 ± 0.027
21,CACGCCTG,0.284 ± 0.023
22,CGCATTGC,-0.192 ± 0.0094
23,ATGCCGTA,-0.214 ± 0.059
24,ATCGAAGA,-0.0933 ± 0.08
25,CTCCTCTC,-0.0351 ± 0.013

row,Sequence,PBM E-score of 8-mer
1,GCCCCCAC,-0.172 ± 0.0032
2,CGTAATAA,0.0313 ± 0.0089
3,TACAGCCA,-0.252 ± 0.035
4,TTCCACAA,0.136 ± 0.0051
5,CGTATCGC,0.2173 ± 0.0016
6,ACGAGGAC,-0.21 ± 0.02
7,CGCACTAA,0.199 ± 0.013
8,CAAGGCAG,-0.304 ± 0.0079
9,AGGCGTGA,0.4805 ± 0.00059
10,CCTCAAGG,-0.113 ± 0.057
11,TGGCGTAA,0.00331 ± 0.0098
12,ATGCAGGC,-0.249 ± 0.071
13,CGATCCAC,-0.159 ± 0.05
14,AAAGAGGC,-0.171 ± 0.044
15,ACTGACAC,0.379 ± 0.012
16,AAGGGAAT,-0.106 ± 0.051
17,ATTCCACC,-0.173 ± 0.032
18,GAGCCGAA,-0.0509 ± 0.017
19,AAGTGAAG,0.0945 ± 0.087
20,AAACGGCT,-0.124 ± 0.00042
21,ATGGAGTG,0.126 ± 0.035
22,ACTATCAT,0.0404 ± 0.024
23,AGGTTAGA,-0.141 ± 0.011
24,AGTTCACA,0.395 ± 0.0064
25,TCAATCAA,-0.18 ± 0.035

row,Sequence,PBM E-score of 8-mer
1,ATCCCCCC,-0.148 ± 0.0099
2,ACCGCAAC,0.0188 ± 0.15
3,CGTATATC,-0.197 ± 0.12
4,CGTGCCTA,-0.0437 ± 0.046
5,CTCAGGCC,-0.35 ± 0.03
6,CTTTTCCA,-0.117 ± 0.032
7,AGTACTCG,-0.0641 ± 0.051
8,ACTCCGCT,0.00059 ± 0.053
9,CGCCAGGC,0.0754 ± 0.005
10,GACTCCCA,0.0644 ± 0.041
11,GCGTTATA,0.0969 ± 0.078
12,GGGTCGTA,-0.0793 ± 0.043
13,GACACGAA,0.0713 ± 0.025
14,AGCTCTAG,-0.214 ± 0.056
15,GAATCAAC,-0.054 ± 0.024
16,CATGGGTC,-0.153 ± 0.038
17,TACGTGCA,0.0029 ± 0.0098
18,CACATCAA,0.168 ± 0.039
19,AGAAGGAT,-0.0606 ± 0.024
20,CCTTGAAG,-0.158 ± 0.098
21,ACCCCATA,0.0374 ± 0.0074
22,ACAGTCCC,-0.0109 ± 0.038
23,TAGGGGAA,-0.112 ± 0.034
24,GCATGCAC,-0.134 ± 0.064
25,CCGAATCA,-0.0209 ± 0.062

row,Sequence,PBM E-score of 8-mer
1,GCCATTAA,-0.111 ± 0.042
2,ACGCCAGC,0.223 ± 0.01
3,TAGCCTCA,-0.278 ± 0.051
4,CTCAATCC,-0.0643 ± 0.012
5,GGCGACTA,0.0427 ± 0.031
6,CTCCCCTA,-0.232 ± 0.0027
7,ATTTTACA,0.0319 ± 0.09
8,CGCTTGCA,0.125 ± 0.0022
9,CGCCGCAG,-0.0564 ± 0.044
10,CAACGGAC,0.0874 ± 0.13
11,ATGGGCCC,-0.128 ± 0.015
12,CTTCGTGC,-0.0507 ± 0.059
13,AGGGCGTC,0.108 ± 0.062
14,TCCCGACA,0.0834 ± 0.073
15,AAAGAATA,-0.00788 ± 0.042
16,GTCCTCTA,-0.22 ± 0.011
17,AGACTTCA,-0.0394 ± 0.0082
18,AATAAGAA,-0.197 ± 0.089
19,AATTGGTA,-0.124 ± 0.072
20,CGATTCAG,-0.0206 ± 0.072
21,GCTGTCTA,0.0607 ± 0.03
22,CCATTAGC,0.093 ± 0.067
23,AAGAGTCT,-0.294 ± 0.015
24,CAAGGTCG,0.004 ± 0.014
25,CACTGAAG,-0.0542 ± 0.036

row,Sequence,PBM E-score of 8-mer
1,CGGGCCTC,-0.161 ± 0.012
2,CGAGTTAA,0.1978 ± 0.0014
3,AAAACACC,0.348 ± 0.031
4,CTTCAGCC,-0.134 ± 0.022
5,ACGTAGCG,-0.0316 ± 0.038
6,ACGACAAA,-0.0758 ± 0.068
7,AGCAGGCA,-0.0956 ± 0.015
8,TACCACAA,-0.0323 ± 0.0016
9,AGTCGATC,-0.0863 ± 0.0044
10,TCCTAACA,0.265 ± 0.0096
11,CGGCGGGC,-0.224 ± 0.052
12,GGTAGTTA,-0.0453 ± 0.015
13,ACGCTGGG,-0.0401 ± 0.05
14,GTGATTCA,0.145 ± 0.04
15,CGTAATTA,-0.193 ± 0.0081
16,CGTACGAC,-0.0777 ± 0.0065
17,CAGATCAC,0.0588 ± 0.011
18,GGAGTCGA,0.0754 ± 0.0085
19,CGATGGAG,-0.109 ± 0.038
20,ACTGGGAT,0.0295 ± 0.012
21,AGGCAAGG,-0.216 ± 0.0041
22,CGGCAGGC,-0.0598 ± 0.015
